# Some of the results follow.
# B1: FliD (Clostridium difficile) (protein)
# chain: MSSISPVRVTGLSGNFDMEGIIEASMIRDKEKVNKAKQDQQIVKWKQEIYRDIIKESKNLYDKYLNGDSPNSITNKKAYSATRITSSDESIIVAKGSAGAEKINYQFAVSQMAEPAKVTIKLNSSDPIVQQFPPNASGASSLNIGGVNIPISEQDTTSTIVSKINSLCADNDIRASYSEMTGELIISRKQTGSSSDIDLKVIGNDSLAGQIASDNGITFTTDASGTKSAVVYGKNLEADVTDDQGRVTHISKEQNSFKIDNIDYNVNSKGSAKLVSVTDTEEATKNMKAFVDDYNALMDKVYGLVTTKKSKDYPPLTDEQKDDMTTEEIEKWEKKAKEGILRNDDELRAFVEDIQSMFFGDADTIIALRKLGISEHENYNKKGQISFNADTFSKALIDDSDKVYKALAGYSSNYDDKGMFEKLKKIVFEYSGSSASKLTKKAGMENSSSASQNVYSKQIAEQERNISRLVEKMNDKEKRLYAKYSALESLLNKYSSQMNYFSQAQGN
# How the values were obtained:
# Assay in all cases: glycan array binding signal (z-score within array); higher = stronger binding
# Conditions in all cases: glycan notation: IUPAC condensed, linker removed
# [1] = target: Neu5Ac(a2-3)Gal(b1-4)GlcNAc(b1-2)[Neu5Ac(a2-3)Gal(b1-4)GlcNAc(b1-6)]Man(a1-6)[Neu5Ac(a2-3)Gal(b1-4)GlcNAc(b1-2)Man(a1-3)]Man(b1-4)GlcNAc(b1-4)GlcNAc
# Summary of the method: (§1)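 The Consortium for Functional Glycomics database supplied 3228 glycan arrays, of which those lacking an available protein sequence were dropped. The binding signal, a within-array Z-score, was averaged across arrays of the same protein sequence and across linkers. Negative scores can be read as non-binding.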
# [2] = target: Neu5Ac(a2-3)Gal(b1-4)GlcNAc(b1-2)[Neu5Ac(a2-3)Gal(b1-4)GlcNAc(b1-6)]Man(a1-6)[Neu5Ac(a2-3)Gal(b1-4)GlcNAc(b1-2)Man(a1-3)][GlcNAc(b1-4)]Man(b1-4)GlcNAc(b1-4)GlcNAc
# Summary of the method: as §1
# [3] = target: Neu5Ac(a2-3)Gal(b1-4)GlcNAc(b1-3)Gal
# Summary of the method: as §1
# [4] = target: Neu5Ac(a2-3)Gal(b1-4)GlcNAc(b1-3)Gal(b1-3)GlcNAc
# Summary of the method: as §1
# [5] = target: Neu5Ac(a2-3)Gal(b1-4)GlcNAc(b1-3)Gal(b1-4)GlcNAc
# Summary of the method: as §1
# [6] = target: Neu5Ac(a2-3)Gal(b1-4)GlcNAc(b1-3)Gal(b1-4)GlcNAc(b1-2)Man(a1-3)[Neu5Ac(a2-3)Gal(b1-4)GlcNAc(b1-3)Gal(b1-4)GlcNAc(b1-2)Man(a1-6)]Man(b1-4)GlcNAc(b1-4)GlcNAc
# Summary of the method: as §1
# [7] = target: Neu5Ac(a2-3)Gal(b1-4)GlcNAc(b1-3)Gal(b1-4)GlcNAc(b1-3)Gal(b1-4)GlcNAc
# Summary of the method: as §1
# [8] = target: Neu5Ac(a2-3)Gal(b1-4)GlcNAc(b1-3)Gal(b1-4)GlcNAc(b1-3)Gal(b1-4)GlcNAc(b1-2)Man(a1-3)[Neu5Ac(a2-3)Gal(b1-4)GlcNAc(b1-3)Gal(b1-4)GlcNAc(b1-3)Gal(b1-4)GlcNAc(b1-2)Man(a1-6)]GalNAc
# Summary of the method: as §1
# [9] = target: Neu5Ac(a2-3)Gal(b1-4)GlcNAc(b1-3)Gal(b1-4)GlcNAc(b1-3)GalNAc
# Summary of the method: as §1
# [10] = target: Neu5Ac(a2-3)Gal(b1-4)GlcNAc(b1-3)Gal(b1-4)GlcNAc(b1-3)[Neu5Ac(a2-3)Gal(b1-4)GlcNAc(b1-3)Gal(b1-4)GlcNAc(b1-6)]GalNAc
# Summary of the method: as §1
# [11] = target: Neu5Ac(a2-3)Gal(b1-4)GlcNAc(b1-3)Gal(b1-4)GlcNAc(b1-6)[Gal(b1-3)]GalNAc
# Summary of the method: as §1
# [12] = target: Neu5Ac(a2-3)Gal(b1-4)GlcNAc(b1-3)Gal(b1-4)[Fuc(a1-3)]GlcNAc
# Summary of the method: as §1
# [13] = target: Neu5Ac(a2-3)Gal(b1-4)GlcNAc(b1-3)GalNAc
# Summary of the method: as §1
# [14] = target: Neu5Ac(a2-3)Gal(b1-4)GlcNAc(b1-3)[Neu5Ac(a2-3)Gal(b1-4)GlcNAc(b1-6)]GalNAc
# Summary of the method: as §1
# [15] = target: Neu5Ac(a2-3)Gal(b1-4)GlcNAc(b1-6)GalNAc
# Summary of the method: as §1
# [16] = target: Neu5Ac(a2-3)Gal(b1-4)GlcNAc(b1-6)[Gal(b1-3)]GalNAc
# Summary of the method: as §1
# [17] = target: Neu5Ac(a2-3)Gal(b1-4)GlcNAc(b1-6)[Neu5Ac(a2-3)Gal(b1-3)]GalNAc
# Summary of the method: as §1
# [18] = target: Neu5Ac(a2-3)Gal(b1-4)GlcNAc6S
# Summary of the method: as §1
# [19] = target: Neu5Ac(a2-3)Gal(b1-4)[Fuc(a1-3)]GlcNAc
# Summary of the method: as §1
# [20] = target: Neu5Ac(a2-3)Gal(b1-4)[Fuc(a1-3)]GlcNAc(b1-2)Man
# Summary of the method: as §1
# [21] = target: Neu5Ac(a2-3)Gal(b1-4)[Fuc(a1-3)]GlcNAc(b1-3)Gal
# Summary of the method: as §1
# [22] = target: Neu5Ac(a2-3)Gal(b1-4)[Fuc(a1-3)]GlcNAc(b1-3)Gal(b1-4)GlcNAc
# Summary of the method: as §1
# [23] = target: Neu5Ac(a2-3)Gal(b1-4)[Fuc(a1-3)]GlcNAc(b1-3)Gal(b1-4)[Fuc(a1-3)]GlcNAc(b1-3)Gal(b1-4)[Fuc(a1-3)]GlcNAc
# Summary of the method: as §1
# [24] = target: Neu5Ac(a2-3)Gal(b1-4)[Fuc(a1-3)]GlcNAc(b1-3)GalNAc
# Summary of the method: as §1
# [25] = target: Neu5Ac(a2-3)Gal(b1-4)[Fuc(a1-3)]GlcNAc(b1-6)[Gal(b1-3)]GalNAc
# Summary of the method: as §1
# [26] = target: Neu5Ac(a2-3)Gal(b1-4)[Fuc(a1-3)]GlcNAc(b1-6)[Neu5Ac(a2-3)Gal(b1-3)]GalNAc
# Summary of the method: as §1
# [27] = target: Neu5Ac(a2-3)Gal(b1-4)[Fuc(a1-3)]GlcNAc6S
# Summary of the method: as §1
# [28] = target: Neu5Ac(a2-3)Gal6S(b1-4)GlcNAc
# Summary of the method: as §1
# [29] = target: Neu5Ac(a2-3)Gal6S(b1-4)[Fuc(a1-3)]GlcNAc
# Summary of the method: as §1
# Neu5Ac(a2-3)GalNAc = target: Neu5Ac(a2-3)GalNAc
# Summary of the method: as §1
# [30] = target: Neu5Ac(a2-3)GalNAc(b1-4)GlcNAc
# Summary of the method: as §1
# [31] = target: Neu5Ac(a2-3)[GalNAc(b1-4)]Gal(b1-4)Glc
# Summary of the method: as §1
# [32] = target: Neu5Ac(a2-3)[GalNAc(b1-4)]Gal(b1-4)GlcNAc
# Summary of the method: as §1
# [33] = target: Neu5Ac(a2-3)[GalNAc(b1-4)]Gal(b1-4)GlcNAc(b1-3)GalNAc
# Summary of the method: as §1
# [34] = target: Neu5Ac(a2-3)[Neu5Ac(a2-6)]GalNAc
# Summary of the method: as §1
# Neu5Ac(a2-6)Gal = target: Neu5Ac(a2-6)Gal
# Summary of the method: as §1
# [35] = target: Neu5Ac(a2-6)Gal(b1-3)GlcNAc(b1-3)[Gal(b1-4)GlcNAc(b1-6)]Gal(b1-4)Glc
# Summary of the method: as §1
# Neu5Ac(a2-6)Gal(b1-4)Glc = target: Neu5Ac(a2-6)Gal(b1-4)Glc
# Summary of the method: as §1
# [36] = target: Neu5Ac(a2-6)Gal(b1-4)GlcNAc
# Summary of the method: as §1
# [37] = target: Neu5Ac(a2-6)Gal(b1-4)GlcNAc(b1-2)Man
# Summary of the method: as §1
# [38] = target: Neu5Ac(a2-6)Gal(b1-4)GlcNAc(b1-2)Man(a1-3)Man(b1-4)GlcNAc(b1-4)GlcNAc
# Summary of the method: as §1
# [39] = target: Neu5Ac(a2-6)Gal(b1-4)GlcNAc(b1-2)Man(a1-3)[Gal(b1-4)GlcNAc(b1-2)Man(a1-6)]Man(b1-4)GlcNAc(b1-4)GlcNAc
# Summary of the method: as §1
# [40] = target: Neu5Ac(a2-6)Gal(b1-4)GlcNAc(b1-2)Man(a1-3)[GlcNAc(b1-2)Man(a1-6)]Man(b1-4)GlcNAc(b1-4)GlcNAc
# Summary of the method: as §1
# [41] = target: Neu5Ac(a2-6)Gal(b1-4)GlcNAc(b1-2)Man(a1-3)[GlcNAc(b1-4)][Neu5Ac(a2-6)Gal(b1-4)GlcNAc(b1-2)Man(a1-6)]Man(b1-4)GlcNAc(b1-4)GlcNAc
# Summary of the method: as §1
# [42] = target: Neu5Ac(a2-6)Gal(b1-4)GlcNAc(b1-2)Man(a1-3)[Man(a1-6)]Man(b1-4)GlcNAc(b1-4)GlcNAc
# Summary of the method: as §1
binder,measurement,setting,value
B1,glycan array binding signal (z-score),[1],-0.056
same,glycan array binding signal (z-score),[2],-0.251
same,glycan array binding signal (z-score),[3],-0.185
same,glycan array binding signal (z-score),[4],-0.249
same,glycan array binding signal (z-score),[5],-0.084
same,glycan array binding signal (z-score),[6],-0.025
same,glycan array binding signal (z-score),[7],-0.216
same,glycan array binding signal (z-score),[8],-0.015
same,glycan array binding signal (z-score),[9],-0.241
same,glycan array binding signal (z-score),[10],-0.188
same,glycan array binding signal (z-score),[11],-0.254
same,glycan array binding signal (z-score),[12],-0.255
same,glycan array binding signal (z-score),[13],-0.208
same,glycan array binding signal (z-score),[14],-0.285
same,glycan array binding signal (z-score),[15],-0.272
same,glycan array binding signal (z-score),[16],-0.138
same,glycan array binding signal (z-score),[17],-0.061
same,glycan array binding signal (z-score),[18],-0.289
same,glycan array binding signal (z-score),[19],-0.199
same,glycan array binding signal (z-score),[20],-0.222
same,glycan array binding signal (z-score),[21],-0.196
same,glycan array binding signal (z-score),[22],0.018
same,glycan array binding signal (z-score),[23],-0.242
same,glycan array binding signal (z-score),[24],-0.101
same,glycan array binding signal (z-score),[25],-0.233
same,glycan array binding signal (z-score),[26],-0.17
same,glycan array binding signal (z-score),[27],-0.269
same,glycan array binding signal (z-score),[28],-0.213
same,glycan array binding signal (z-score),[29],-0.291
same,glycan array binding signal (z-score),Neu5Ac(a2-3)GalNAc,1.09
same,glycan array binding signal (z-score),[30],-0.144
same,glycan array binding signal (z-score),[31],-0.264
same,glycan array binding signal (z-score),[32],-0.279
same,glycan array binding signal (z-score),[33],0.016
same,glycan array binding signal (z-score),[34],-0.226
same,glycan array binding signal (z-score),Neu5Ac(a2-6)Gal,-0.156
same,glycan array binding signal (z-score),[35],-0.197
same,glycan array binding signal (z-score),Neu5Ac(a2-6)Gal(b1-4)Glc,-0.116
same,glycan array binding signal (z-score),[36],-0.197
same,glycan array binding signal (z-score),[37],-0.21
same,glycan array binding signal (z-score),[38],-0.227
same,glycan array binding signal (z-score),[39],-0.163
same,glycan array binding signal (z-score),[40],-0.223
same,glycan array binding signal (z-score),[41],-0.165
same,glycan array binding signal (z-score),[42],-0.232

# — the supplement of paper PMC8728848
